The other results are listed elsewhere or left out. One pool of 16,384 single-stranded DNAs met each Rep nickase domain in vitro (3 µM enzyme, 1 h, 37 °C); shown is the middle of each 90-letter strand. Uncut reads are compared with the no-enzyme pool on a log2 scale; strong cutting gives strongly negative numbers. There is no active / inactive call. Counts are relative to all reads; uncut strands gain when others are lost, and binding without cutting may add a little.

Results on 15 sequences are retold here after the supplement of paper PMC7826260.

Assay in all cases: uncleaved DNA left, log2 of reads against the no-enzyme library (log2 ratio); higher = less cleavage (more negative = more Rep cleavage of the k-mer); sequences stand for … in CTCGTCCG…ACCGGAGA
Assay [1] relates to T1, Rep nickase domain of Muscovy duck circovirus.
T1 sequence (residues 1-111, tag not shown): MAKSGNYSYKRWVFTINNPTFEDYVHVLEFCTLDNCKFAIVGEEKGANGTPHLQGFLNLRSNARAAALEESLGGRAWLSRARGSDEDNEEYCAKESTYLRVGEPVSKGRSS
As for the experimental part:
(§1)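 A pool of 90-nt single-stranded DNAs with seven random bases just before the constant AC of the nick site (name = the seven bases) was cut by 3 µM recombinant His6-SUMO-tagged Rep nickase domain (300 nM DNA, 50 mM HEPES pH 8.0, 50 mM NaCl, 1 mM MnCl2, 1 h, 37 °C, three replicates). Uncut DNA was amplified and sequenced.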

Assay [2] has as its system T2, Rep nickase domain of banana bunchy top virus.
T2 sequence (residues 1-94, tag not shown): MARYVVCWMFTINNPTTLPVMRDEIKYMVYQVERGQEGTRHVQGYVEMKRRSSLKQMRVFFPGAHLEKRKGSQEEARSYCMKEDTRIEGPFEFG
As to the method: as §1
Assay [3] concerns T3, Rep nickase domain of cabbage leaf curl virus.
T3 sequence (residues 1-116, tag not shown): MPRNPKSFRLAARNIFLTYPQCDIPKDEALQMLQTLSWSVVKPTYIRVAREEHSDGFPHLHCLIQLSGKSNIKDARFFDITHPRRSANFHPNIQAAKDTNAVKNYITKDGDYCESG
As for the experimental part: as §1
Assay [4] relates to T4, Rep nickase domain of chickpea chlorotic dwarf virus.
T4 sequence (residues 1-124, tag not shown): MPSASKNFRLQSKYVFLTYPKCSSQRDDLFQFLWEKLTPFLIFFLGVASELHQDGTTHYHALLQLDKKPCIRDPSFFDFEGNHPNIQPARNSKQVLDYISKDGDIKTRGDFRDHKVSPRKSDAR
As to the method:
as §1

In assay [5] the test system is T5, Rep nickase domain of faba bean necrotic yellows virus.
T5 sequence (residues 1-98, tag not shown): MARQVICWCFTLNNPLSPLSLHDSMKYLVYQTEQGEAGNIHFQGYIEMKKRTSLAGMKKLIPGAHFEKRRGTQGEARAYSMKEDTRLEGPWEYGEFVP
As to the method: as §1
In assay [6] the test system is T6, Rep nickase domain of maize striate mosaic virus.
T6 sequence (residues 1-117, tag not shown): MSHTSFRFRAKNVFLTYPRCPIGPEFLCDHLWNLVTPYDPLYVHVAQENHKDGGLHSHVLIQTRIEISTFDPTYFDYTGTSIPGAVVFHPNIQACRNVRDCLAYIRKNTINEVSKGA
As to the method: as §1
The test system of assay [7] is T7, Rep nickase domain of porcine circovirus 2.
T7 sequence (residues 2-116, tag not shown): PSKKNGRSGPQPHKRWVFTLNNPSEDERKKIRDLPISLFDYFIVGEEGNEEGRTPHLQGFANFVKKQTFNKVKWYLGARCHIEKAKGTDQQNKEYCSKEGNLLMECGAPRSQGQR
As to the method: as §1
Assay [8] deals with T8, Rep nickase domain of tomato golden mosaic virus.
T8 sequence (residues 1-124, tag not shown): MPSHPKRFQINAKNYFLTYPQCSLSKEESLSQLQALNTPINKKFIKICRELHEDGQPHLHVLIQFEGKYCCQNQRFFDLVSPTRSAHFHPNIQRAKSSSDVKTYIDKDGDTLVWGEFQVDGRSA
As for the experimental part:
as §1

Assay [9] relates to T9, Rep nickase domain of tomato yellow leaf curl virus.
T9 sequence (residues 1-136, tag not shown): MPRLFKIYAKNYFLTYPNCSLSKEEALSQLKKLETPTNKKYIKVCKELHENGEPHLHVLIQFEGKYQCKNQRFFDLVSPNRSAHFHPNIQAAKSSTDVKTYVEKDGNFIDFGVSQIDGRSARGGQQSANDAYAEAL
As for the experimental part:
as §1

The test system of assay [10] is T10, Rep nickase domain of wheat dwarf virus.
T10 sequence (residues 1-137, tag not shown): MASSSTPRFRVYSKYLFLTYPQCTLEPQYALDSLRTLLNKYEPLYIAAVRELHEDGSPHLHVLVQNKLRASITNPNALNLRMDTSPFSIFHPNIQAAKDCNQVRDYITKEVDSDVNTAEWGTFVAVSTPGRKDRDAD
As to the method:
as §1

For the sequence ATCTCCG, the “uncleaved DNA left (log2)” value was 0.131 in assay [1]; 0.0606 in assay [2]; -0.832 in assay [3]; -0.791 in [4]; 0.0081 in assay [5]; -1.01 in assay [6]. Besides, the “uncleaved DNA left (log2)” value in assay [7] was 0.115; in assay [8], 0.0049; in [9], -0.0178; in assay [10] it was -0.12.

Turning to GTATATG, the “uncleaved DNA left (log2)” value in assay [1] is 0.054; in assay [2], -0.0659; in assay [3], -0.0523; in assay [4], 0.323; in [5], 0.127; in [6], -0.241. Further, the “uncleaved DNA left (log2)” value in [7] turned out to be 0.129; in assay [8] it was 0.114; in assay [9], 0.0493; in [10], 0.0902.

For the sequence TTCAACT, the “uncleaved DNA left (log2)” value in assay [1] is -0.097; in assay [2] it was -0.132; in assay [3] it was -0.0487; in assay [4], -2.65; in [5], -0.0883; in [6] it was -0.299. In addition, the “uncleaved DNA left (log2)” value in assay [7] was -0.562; in assay [8], -0.017; in assay [9] it was -0.0284; in [10], -0.0968.

CCGTGCA: the “uncleaved DNA left (log2)” value in assay [1] was -0.243; in [2], -0.13; in [3], -0.524; in assay [4], -0.777; in [5], -0.196; in [6] it was -1.03. Further, the “uncleaved DNA left (log2)” value was -0.554 in [7], -0.172 in assay [8], 0.0293 in assay [9] and -0.253 in assay [10].

Take GCAGACA: the “uncleaved DNA left (log2)” value in assay [1] is 0.0411; in assay [2] it was 0.141; in assay [3] it was 0.558; in assay [4], 1.06; in [5] it was 0.0816; in [6] it was 1.5. For the same sequence, the “uncleaved DNA left (log2)” value in [7] was determined as 0.195; in assay [8] it was 0.0975; in [9] it was 0.00531; in assay [10], 0.244.

As for GGTATGG, the “uncleaved DNA left (log2)” value in assay [1] was found to be 0.0477; in assay [2], 0.162; in assay [3] it was 0.476; in assay [4], 0.909; in [5], 0.000446; in assay [6] it was 0.941. The “uncleaved DNA left (log2)” value in assay [7] was 0.146; in assay [8], 0.131; in assay [9], 0.053; in assay [10] it was 0.0591.

In the case of CTCCTCG, the “uncleaved DNA left (log2)” value was 0.1 in [1]; 0.0896 in [2]; -0.678 in assay [3]; -0.0813 in assay [4]; 0.0319 in assay [5]; -0.809 in assay [6]. Further, the “uncleaved DNA left (log2)” value in assay [7] is 0.209; in assay [8], -0.00953; in assay [9], -0.104; in [10] it was 0.0715.

For ACCAAGG, the “uncleaved DNA left (log2)” value is 0.134 in assay [1]; 0.0684 in assay [2]; -0.362 in [3]; 0.0678 in [4]; 0.0779 in assay [5]; -0.775 in assay [6]. Besides, the “uncleaved DNA left (log2)” value in assay [7] came out at 0.145; in [8], 0.159; in assay [9], 0.0377; in assay [10] it was 0.0498.

For the sequence GTCTTGT, the “uncleaved DNA left (log2)” value in assay [1] is 0.0249; in assay [2] it was -0.00281; in assay [3], 0.328; in assay [4], 0.661; in assay [5] it was -0.032; in [6], 1.71. Also, the “uncleaved DNA left (log2)” value in assay [7] is -0.0722; in assay [8] it was 0.0545; in assay [9], -0.0268; in [10], 0.0404.

As to AGCCGCA, the “uncleaved DNA left (log2)” value in assay [1] is -0.125; in assay [2], 0.0417; in assay [3], 0.00147; in assay [4], 0.387; in assay [5], -0.0141; in [6], 0.829. The “uncleaved DNA left (log2)” value in [7] is -0.00228; in assay [8], 0.00925; in assay [9] it was -0.0893; in assay [10] it was 0.0741.

For the sequence TACAATT, the “uncleaved DNA left (log2)” value in assay [1] was -0.402; in [2], -1.22; in assay [3], -3.63; in assay [4], -3.11; in [5], -0.199; in assay [6], -1.2. For the same sequence, the “uncleaved DNA left (log2)” value is -3.77 in [7], -0.508 in [8], -0.154 in [9] and -0.757 in assay [10].

As for GTATGCC, the “uncleaved DNA left (log2)” value in assay [1] was determined as 0.105; in [2], 0.00665; in assay [3], 0.128; in assay [4], 0.531; in assay [5], 0.0345; in [6], 0.287. Moreover, the “uncleaved DNA left (log2)” value in assay [7] is 0.0745; in [8] it was -0.00251; in [9], 0.134; in assay [10], -0.00339.

With TAAAGGG, the “uncleaved DNA left (log2)” value is 0.163 in assay [1]; 0.0325 in assay [2]; -0.578 in assay [3]; -1.11 in assay [4]; 0.167 in assay [5]; -0.474 in assay [6]. Also, the “uncleaved DNA left (log2)” value in assay [7] was 0.163; in assay [8] it was 0.11; in assay [9] it was -0.00841; in [10], 0.00556.

On to GACAGAC, for which the “uncleaved DNA left (log2)” value in assay [1] came out at 0.0526; in assay [2], 0.0126; in assay [3], 0.429; in assay [4] it was 1.26; in assay [5], 0.0996; in assay [6], 1.09. Besides, the “uncleaved DNA left (log2)” value in [7] came out at 0.266; in assay [8], 0.0638; in [9], 0.0234; in assay [10] it was 0.128.

Turning to TGACGAT, the “uncleaved DNA left (log2)” value in assay [1] is -0.0186; in assay [2] it was -0.0472; in assay [3], 0.0999; in [4], 0.373; in assay [5] it was -0.114; in assay [6] it was 1. In addition, the “uncleaved DNA left (log2)” value in assay [7] was -0.554; in assay [8], -0.0676; in assay [9], -0.15; in assay [10], 0.0461.
